In all, about 150,000 compounds went through this assay and about 540 (0.36%) showed an effect of 50% or more. The list shows a part of the results.
System: Plasmodium falciparum
Assay: Primary screen in NF54 nanoGlo assay, in single point, at 2uM, 72h; a lower Z score goes with more inhibition
Assay type: functional, Erythrocyte
Conditions: timepoint 72 hour

Compound | % Inhibition | Z score
Cc1nc(CN2CCc3[nH]c4c(Cl)cccc4c3C2)c[nH]1 | 9% | -1.74
CCCOC(=O)N[C@@H](CC)COC(=O)Nc1cccc(C)c1C | -10% | 1.34
OC1(Cc2nc(-c3ccsc3)no2)CCCCC1 | -10% | 1.53
NC(=O)N1CCC[C@@H]1COC(=O)C1=CCCCCC1 | 7% | -0.83
Cc1ccc(OC2CN(Cc3ccc(S(C)(=O)=O)cc3)C2)cc1 | -2% | 0.46
c1ccc(Cn2c(C[n+]3ccccc3)nc3ccccc32)cc1 | -2% | 0.36
CCn1nc(CC(N)=O)nc1COc1ccc(Cl)cc1C | 0% | 0.05
Cc1nc(C)c(CNc2ncncc2C(=O)O)s1 | -5% | 0.89
CN(C)c1nsc(-c2ccc(C(=O)O)s2)n1 | -5% | 0.83
O=C(C1CCC1)N1CCCc2cc(S(=O)(=O)N3CCCc4ccccc43)ccc21 | -11% | 1.35
O=C(NCc1ccncc1)c1cn(C2CN(S(=O)(=O)Cc3ccccc3)C2)nn1 | -9% | 1.73
Cc1ccccc1-n1ncc2c1CC(C)(C)C[C@@H]2NC(=O)CCc1scnc1C | -23% | 2.05
CN(C(=O)c1nn2c(c1Br)N[C@@H](c1ccc(Br)o1)C[C@H]2C(F)(F)F)C1CCCCC1 | 4% | -0.65
CC1CC1c1nc(-c2cnccn2)no1 (stereo not drawn) | -7% | 0.79
COc1ncc(CN2CCC[C@H](Cn3ccnc3C)C2)cn1 | -6% | 0.89
Cc1ccc(Cl)c(OC(C)C(=O)N2C3CCC2CC(O)(Cc2ccc(F)cc2F)C3)c1 (stereo not drawn) | 32% | -0.36
O=C1CC[C@@]2(CCCN(C(=O)N3CCCC3)C2)CN1CCc1c[nH]cn1 | -1% | 0.1
Cc1ccc(-c2csc(NC(=O)C3C4C=CC(O4)C3C(=O)O)n2)cc1 (stereo not drawn) | -15% | 2.08
CCC(=O)Nc1c(C)nc(N2CCN(C)CC2)nc1C | 0% | -0.05
O=C(c1[nH]nc(C2CC2)c1Br)N1CCCCC1 | -3% | 0.34
COc1ccc(N2C[C@@H](C(=O)N(C)c3ncccc3F)CC2=O)cc1 | 7% | -0.95

Compound | % Inhibition | Z score
Cc1cc(C(=O)N2CCC[C@@](CO)(CC3CC3)C2)ccc1N1CCOCC1 | -4% | 0.59
COCCCN1C(=O)C[C@](CC(=O)N(C)C(C2CC2)C2CC2)(c2ccccc2OC)C1=O | -9% | 1.7
CCC(C(=O)N1C[C@@H](OC)C[C@H]1CO)c1ccccc1 (stereo partly drawn) | 9% | -1.73
O=C(C1CCC1)N1CCS(=O)(=O)CC1 | -12% | 1.59
Cc1ccc(NC(=O)N2CCC3(CC2)C(=O)N(CC(=O)N2CCCCC2)CN3c2ccccc2)cc1Cl | -11% | 1.49
COc1ccc(-n2nc(C3CC3)c3c(C(=O)O)cc(C(C)C)nc32)cc1 | -39% | 4.55
COc1cccc(C2=Nc3cccnc3N(CC(=O)NCc3ccc(F)cc3)C(=O)C2)c1 | -17% | 2.69
COc1ccccc1NC(=O)N1CCCCC2CCCCC21 (stereo not drawn) | -12% | 1.22
Nc1c(C(=O)Nc2ccccc2)sc(=S)n1Cc1ccccc1 | 6% | -0.78
Cc1nc[nH]c1C(=O)NC[C@H]1CCCN(c2ccncc2)C1 | -19% | 1.63
O=C(N[C@H]1CCCCNC1=O)c1cc(C2CC2)[nH]n1 | 3% | -0.45
CN(C)C1(CNc2c(F)cc(C#N)cc2F)CCOCC1 | 6% | -1.12
COc1cccc(C(=O)N(Cc2csc(COc3cc(C)cc(C)c3)n2)C2CC2)c1 | -12% | 1.63
O=C(C[C@H]1CCC(F)(F)C1)Nc1ccc(O)cc1Br | -9% | 1.41
Cc1ccc(N(C(=O)[C@@H]2C[C@H]2c2cnn(C)c2)C2CCCCC2)nc1 | -9% | 1.81
C[C@H]1CN(S(=O)(=O)c2cccc3c2OCC3)Cc2ccccc2O1 | -7% | 1.09
COc1cccc([C@@H]2CC(=O)c3cc4c(cc3N2)OCO4)c1 | -4% | 0.49
O=C(NC1CCCN(C(=O)C2CCC(C3CC3)N2)C1)c1ccc2ccccc2c1 (stereo not drawn) | 9% | -1.4
O=C(c1ccccc1-c1nnn[nH]1)N1CCc2[nH]c(-c3cccnc3)nc2C1 | -4% | 0.66
CN1CCN([C@H]2CCN(c3nccc4ccccc34)C2)CC1 | -9% | 0.83
O=C(NCC1CC1c1ccccc1)NC1CC1 (stereo not drawn) | 28% | -3.17

Compound | % Inhibition | Z score
Cn1c(=O)n(CC(=O)N2C[C@H]3CCS(=O)(=O)[C@H]3C2)c2ccccc21 | -10% | 1.52
O=C(NCCN1CCC[C@H](CO)C1)c1cccc(-c2ccc3occc3c2)c1 | -3% | 0.37
COc1ccc(NCc2ccc(-c3c(F)cccc3F)o2)cc1CO | -12% | 1.19
Cc1c(Br)c(C(F)F)nn1[C@@H](C)c1nnc(-c2ccncc2)o1 | -28% | 3.28
COc1ccc(CCC(=O)N[C@H]2CCCN(C3CCN(C)CC3)C2)cc1 | -11% | 1.61
CCN1C(=O)c2cc(NC(=O)NCc3ccc(OC)c(OC)c3)ccc2Oc2ccccc21 | 20% | -2.54
CCc1nnc(NC(=O)C2CCOCC2)s1 | -17% | 1.4
Cc1cc(C(=O)NCc2nc(C(F)(F)F)no2)ns1 | 20% | -2.35
O=C1COc2ccccc2N1Cc1noc([C@@H]2CCCO2)n1 | 3% | -0.56
N#Cc1cccc(S(=O)(=O)N2CCC3(CCC(=O)N(C4CC4)C3)CC2)c1 | -20% | 2.12
CCC/C=C/CN1CCC(CC(=O)NC)CC1 | -6% | 1.2
CN1CCC(O)(c2ccc3c(c2)CN(Cc2ccc(F)cc2F)CCO3)CC1 | 6% | -0.71
COC[C@@H]1CC(F)(F)CN1C1CN(S(=O)(=O)c2ccc(F)c(C)c2)C1 | 4% | -0.52
CC(C)C(=O)N1CCc2cc(CNC(=O)c3ccco3)ccc21 | -13% | 1.22
CCCn1cnnc1CN(C)Cc1ccc(OC)cc1C | 1% | -0.18
CN[C@@H](C(=O)NCCc1ccccc1OC)c1cnn(C)c1 | -11% | 1.12
COc1ccc([C@H]2CC(=O)Nc3ncn(-c4ccc(F)cc4)c32)cc1OC | -1% | 0.16
Cc1nn(C)cc1CNc1nc(-c2ccccn2)nc2c1CCNCC2 | -7% | 0.95
CCCC[C@@H](c1cccnc1)N(C)Cc1c(C)nn(C)c1Cl | -3% | 0.29
O[C@H]1CCN(Cc2cccc(OCCCCN3CCOCC3)c2)C[C@@H]1O | 4% | -0.63
COc1ccc(-n2nnnc2-c2cn(C)nc2C(F)(F)F)cc1 | -10% | 1.86

Compound | % Inhibition | Z score
COc1ccc(C(=O)N2CCC3(CC2)OC[C@@H](C(=O)N2CCOCC2)N3C(=O)c2ccccc2)cc1OC | -16% | 2.65
Cc1cc(CNC(=O)c2cn(Cc3cccc4ccccc34)nn2)n[nH]1 | -5% | 0.8
CC(=O)N1CCC(C(=O)Nc2sc(C)c(C)c2C(=O)NCc2cccnc2)CC1 | -5% | 1.07
O=S(=O)(c1cccc(-c2nnc(-c3ccccc3)c(-c3ccccc3)n2)c1)N1CCCCC1 | -10% | 1.31
CCN(CC)CCCNC(=O)C1CCN(c2nc3ccccc3[nH]2)CC1 | 6% | -1.03
CCN(Cc1nccn1C)C(=O)CN1CCOC1=O | -6% | 1.13
CCc1ccc(C2CC(C)CCN2c2cc(C)nc3nc(C(F)(F)F)nn23)o1 (stereo not drawn) | -6% | 0.81
O=C(Nc1ccccc1)C(F)(OC(F)(F)C(F)(OC(F)(F)C(F)(F)C(F)(F)F)C(F)(F)F)C(F)(F)F (stereo not drawn) | 14% | -1.88
CC(C)C(NC(=O)N[C@H]1[C@@H]2COC[C@@H]21)c1nncn1C (stereo partly drawn) | 8% | -1.03
O=C(Nc1cc(F)c(F)c(F)c1)[C@@H]1CC(O)=Nc2c1c(=O)[nH]c(=O)n2Cc1ccccc1 | -14% | 1.58
COc1ccccc1C(=O)N1CCc2cc3ccc2[C@@H]1c1cccc(c1)OCCCNC(=O)CO3 | -12% | 1.6
Cc1cc(CNc2ccc(CC#N)cc2)c(C)o1 | 6% | -0.67
COc1cccc(C(=O)NC[C@@]23CCCC=C2N(CC2CC2)C(=O)CC3)c1 | -14% | 2.05
CC1CCCC(C(=O)N2CC3CCC2C3)C1 (stereo not drawn) | -11% | 1.37
Cc1nccc(NC(=O)NC2C3CCOC3C23CCC3)c1Cl (stereo not drawn) | -3% | 0.34
Fc1ccc(C(Cn2cnc3ccccc32)NC2CCOC2)cc1 (stereo not drawn) | -1% | 0.14
CCc1noc(NCc2ccc3c(c2)OCO3)c1C(=O)Nc1ccc(F)cc1 | -2% | 0.27
CCC12CCCN1C(=O)N(CC(C)Oc1ccc(F)cc1)C2=O (stereo not drawn) | 8% | -1.1
COC[C@H]1CCCN(C(=O)Nc2ccnc(C)n2)C1 | -1% | 0.12
CC(C)CNC(=O)N1CCC[C@H](C2=NC(=C3N=CC=N3)NO2)C1 | -12% | 2.15
CCN(C(=O)Cn1cc(-c2ccc(C)cc2)c(N2CCOCC2)n1)c1cccc(C)c1 | -3% | 0.5
